Laboratory results: the supplement of paper PMC10441789
The list shows a part of the results. Antibody binding of pooled human sera (four to six donors per pool; dilution not stated) to peptides of the Trypanosoma cruzi antigen TSSA on microarrays. Quantile-normalised fluorescence in arbitrary units, mean of duplicate arrays; higher = more binding. No active / inactive call. The uninfected pools are read here as the healthy donors of the same country. The strongest signals lie near the top of the scale (about 60,000).

How the values were obtained:
Test in all cases: antibody binding signal (normalised fluorescence) (arbitrary fluorescence units); higher = stronger serum antibody binding to peptide
[1] = system: pooled sera of chronic Chagas disease patients, Argentina
Description: (§1)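 Microarray of 15-residue peptides over residues 30-55 of Trypanosoma cruzi TSSAII, each with 1 to 10 substitutions at naturally variable positions, probed with one serum pool per country.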

[2] = system: pooled sera of chronic Chagas disease patients, Bolivia
Description: as §1

[3] = system: pooled sera of chronic Chagas disease patients, Brazil
Description: as §1

[4] = system: pooled sera of chronic Chagas disease patients, Colombia
Description: as §1

[5] = system: pooled sera of chronic Chagas disease patients, Mexico
Description: as §1

[6] = system: pooled sera of chronic Chagas disease patients, USA
Description: as §1

[7] = system: pooled sera of uninfected people, Argentina
Description: as §1

[8] = system: pooled sera of uninfected people, Bolivia
Description: as §1

[9] = system: pooled sera of uninfected people, Brazil
Description: as §1

[10] = system: pooled sera of uninfected people, Mexico
Description: as §1

[11] = system: pooled sera of uninfected people, USA
Description: as §1

Sequence	antibody binding signal [1]	antibody binding signal [2]	antibody binding signal [3]	antibody binding signal [4]	antibody binding signal [5]	antibody binding signal [6]	antibody binding signal [7]	antibody binding signal [8]	antibody binding signal [9]	antibody binding signal [10]	antibody binding signal [11]
SGKDKKTAAGEAPSP	468	229	545	795	829	4920	158	78.9	90.5	72.5	74.7
KKPATGETPSQSGAS	9510	4200	25700	149	223	18300	416	485	115	544	509
EKKTATGETPSQPGA	1190	1310	30500	443	427	6920	372	1370	238	436	806
SSTPPSGTEKKAATG	38600	3000	29800	549	25700	4730	981	420	127	108	152
SGKDKKAATGEAPSP	18500	16800	18300	549	697	19000	307	97.9	94.8	86.4	126
GKENKPAAGGAPSPS	1130	286	4450	3570	3080	6760	595	178	119	149	109
TPPSGTDNKTATGGT	37600	39400	47800	717	14300	11800	730	617	2320	238	229
KEKKPATGEAPSQSG	42100	25800	37800	176	199	29700	782	247	117	111	397
GTENKTATGETPSPP	29900	4910	3170	600	954	7330	165	307	143	200	499
NKAAAGGTPSQPGAS	316	256	4140	4270	370	1400	789	936	1190	894	1280
PPSGTDKKPATGGAP	20000	2400	38000	4780	42700	2000	1090	1350	301	4550	535
PSGTDKKAATGGTPS	1980	485	5340	5280	2150	2150	263	411	362	593	211
SGKDKKTATGGAPSP	953	218	385	918	663	887	224	87.7	99	82.6	107
TDNKAATGGTPSPPG	357	949	309	295	456	184	163	250	332	132	92.1
GKDKKPATGEAPSQS	43300	10500	38800	7150	7570	31000	743	257	96.1	79.5	127
KEKKTAAGETPSPPG	207	227	188	234	206	1360	119	108	109	78.5	218
SGKENKAATGETPSP	4590	6050	24700	1710	1790	17200	7260	3110	169	484	1080
EKKPAAGETPSPPGA	782	298	6920	455	306	1950	161	805	218	233	914
DKKPAAGEAPSQPGA	9630	13000	43700	153	261	17400	140	197	194	208	147
GKDNKTAAGGAPSPP	519	191	368	3550	1200	1320	177	144	105	83.7	138
TENKAATGGTPSQSG	28000	1310	519	425	504	281	218	147	541	261	209
TEKKPATGGTPSQSG	1690	540	778	1920	1040	1460	331	439	1450	237	887
STPPSGKENKAAAGE	41100	31700	14300	379	6460	5110	2940	1990	343	226	297
GKDKKPATGGAPSQS	829	333	415	722	1220	1290	225	251	98	79.5	102
TPPSGKDKKAAAGEA	1530	485	629	695	30100	793	209	402	109	78.3	102
GKENKPAAGGAPSQP	6770	1320	20100	12700	16500	13400	614	124	129	139	124
KENKPATGETPSQPG	39700	21400	43600	308	682	26400	402	900	302	1720	237

Sequence	antibody binding signal [1]	antibody binding signal [2]	antibody binding signal [3]	antibody binding signal [4]	antibody binding signal [5]	antibody binding signal [6]	antibody binding signal [7]	antibody binding signal [8]	antibody binding signal [9]	antibody binding signal [10]	antibody binding signal [11]
SSTPPSGTDKKTATG	39300	15700	36300	6790	46000	6850	601	144	183	1220	237
GTENKAATGGTPSPS	35700	1580	1120	1840	2290	1020	183	478	432	154	118
KDNKTATGGTPSQSG	409	306	315	1950	243	523	469	131	187	144	197
GTENKPAAGETPSPS	46800	3430	15600	687	1730	5390	364	1250	291	391	1580
GKEKKPATGGAPSQS	2780	280	637	1700	4030	3280	204	194	94.5	96	245
TEKKTAAGGTPSQSG	1310	326	332	14400	682	2600	309	148	1130	746	288
TISTPPSGTDNKTAA	33300	44700	48800	1210	13200	18600	3480	879	1870	242	554
SGTEKKPATGGTPSQ	5260	633	4070	2250	2310	1660	308	1350	1150	321	941
SGTENKTATGEAPSP	26600	33100	25300	206	273	24700	375	279	197	159	139
PPSGTDNKPAAGGTP	48500	38500	48100	8050	8850	15600	855	899	1670	1200	359
PSGKDKKPATGGTPS	4040	659	2450	6990	5220	4240	189	208	163	95	111
EKKAATGGTPSQSGA	742	883	413	1170	829	1150	307	761	795	251	715
SGKEKKPATGGTPSP	5820	444	5160	2770	4600	5190	225	188	328	81	206
KENKAAAGEAPSPPG	353	203	18700	163	139	10100	155	81.2	88	84.7	88.3
TPPSGKEKKPATGEA	33200	2960	16100	379	40800	11600	712	1290	142	156	469
ISTPPSGKENKPAAG	41100	5250	24800	363	11400	12800	3500	1880	200	217	738
SGKDKKPATGETPSP	29600	3650	20800	708	548	19800	148	196	125	584	276
GTEKKPAAGETPSQS	1480	411	4830	827	1070	1660	90	876	1940	439	1060
GTEKKTATGEAPSQP	14000	24500	38400	924	1700	20600	207	676	245	233	136
TPPSGKEKKAATGEA	9660	411	714	516	21100	1770	461	663	105	158	159
TDKKAAAGGTPSQSG	1210	226	218	4560	426	1440	207	84.4	1310	120	163
DKKTATGETPSPSGA	297	400	715	230	313	7090	425	200	166	343	621
GTEKKAATGEAPSPS	24800	32700	26400	1150	1890	25100	582	823	161	136	203
GTDKKTAAGEAPSQS	606	7510	4100	1940	1270	7910	182	418	172	192	108
KENKAAAGETPSQPG	1400	722	33300	163	168	2820	142	227	108	182	157
ENKPAAGGAPSPSGA	936	3060	4260	2090	460	1050	344	376	305	156	284
